From article PMC12820563 come the findings set out here.

The list shows a part of the results. The list includes weakly bound sequences.

The target in this test is T1, MBP-FoxP3dN (UniProt Q99JB6).
T1 sequence: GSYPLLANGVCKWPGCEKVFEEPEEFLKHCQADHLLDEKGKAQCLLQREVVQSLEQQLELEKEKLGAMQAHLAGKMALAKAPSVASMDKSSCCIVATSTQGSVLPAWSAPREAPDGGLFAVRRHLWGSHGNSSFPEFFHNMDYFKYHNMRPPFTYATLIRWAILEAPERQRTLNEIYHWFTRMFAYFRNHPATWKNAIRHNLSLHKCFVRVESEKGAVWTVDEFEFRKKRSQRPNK
In words: PD-seq (MBP pull-down with sequencing). As to conditions: 20 mM Tris-HCl pH 7.5, 100 mM NaCl, 1.5 mM MgCl2, 0.4 uM protein, 0.1 uM dsDNA library, 30 min, room temperature, amylose pull-down; high values mean tight binding; double strand, one strand shown.
In the case of “GATGATTGTTCTCCCAGCTGATGAATTGATGATTTCGAGTAAACAAATTTTCCTAATCTTTCTGTTCAAGCGCCATCTAC”, the binding signal (RPM ratio (pull-down/input)) came out at 1.11. The result for “GATGATTGTTCTCCCAGCTGATGAATTGGTTATCTCGAGTAAACAAATTTTCCTAATCTTTCTGTTCAAGCGCCATCTAC” reads 2.06. As for “GATGATTGTTCTCCCAGCTGATGAATTACTGGCCTCGAGTAAACAAATTTTCCTAATCTTTCTGTTCAAGCGCCATCTAC”, the binding signal (RPM ratio (pull-down/input)) was 0.42. In the case of “GATGATTGTTCTCCCAGCTGATGAATTGCCTCGATCGAGTAAACAAATTTTCCTAATCTTTCTGTTCAAGCGCCATCTAC”, the binding signal (RPM ratio (pull-down/input)) came to 0.611. The result for “GATGATTGTTCTCCCAGCTGATGAATTCGTTTGATCGAGTAAACAAATTTTCCTAATCTTTCTGTTCAAGCGCCATCTAC” reads 1.31; that for “GATGATTGTTCTCCCAGCTGATGAATTGGCCGCGTCGAGTAAACAAATTTTCCTAATCTTTCTGTTCAAGCGCCATCTAC”, 0.493; that for “GATGATTGTTCTCCCAGCTGATGAATTCGAGTAATCGAGTAAACAAATTTTCCTAATCTTTCTGTTCAAGCGCCATCTAC”, 0.608.

With “GATGATTGTTCTCCCAGCTGATGAATTTTCTCCGTCGAGTAAACAAATTTTCCTAATCTTTCTGTTCAAGCGCCATCTAC”, the binding signal (RPM ratio (pull-down/input)) was 0.198. The result for “GATGATTGTTCTCCCAGCTGATGAATTTAGGGCTTCGAGTAAACAAATTTTCCTAATCTTTCTGTTCAAGCGCCATCTAC” reads 0.514. The result for “GATGATTGTTCTCCCAGCTGATGAATTATCATGCTCGAGTAAACAAATTTTCCTAATCTTTCTGTTCAAGCGCCATCTAC” reads 0.511; that for “GATGATTGTTCTCCCAGCTGATGAATTAGGGGTCTCGAGTAAACAAATTTTCCTAATCTTTCTGTTCAAGCGCCATCTAC”, 0.692. The result for “GATGATTGTTCTCCCAGCTGATGAATTTCTACCCTCGAGTAAACAAATTTTCCTAATCTTTCTGTTCAAGCGCCATCTAC” reads 0.238; that for “GATGATTGTTCTCCCAGCTGATGAATTAGACGGGTCGAGTAAACAAATTTTCCTAATCTTTCTGTTCAAGCGCCATCTAC”, 0.28; that for “GATGATTGTTCTCCCAGCTGATGAATTAATCGTCTCGAGTAAACAAATTTTCCTAATCTTTCTGTTCAAGCGCCATCTAC”, 0.656. Turning to “GATGATTGTTCTCCCAGCTGATGAATTTAGACTATCGAGTAAACAAATTTTCCTAATCTTTCTGTTCAAGCGCCATCTAC”, the binding signal (RPM ratio (pull-down/input)) stood at 0.787. On to “GATGATTGTTCTCCCAGCTGATGAATTTCCTGAATCGAGTAAACAAATTTTCCTAATCTTTCTGTTCAAGCGCCATCTAC”, for which the binding signal (RPM ratio (pull-down/input)) stood at 0.15.

As to “GATGATTGTTCTCCCAGCTGATGAATTAGAAAAGTCGAGTAAACAAATTTTCCTAATCTTTCTGTTCAAGCGCCATCTAC”, the binding signal (RPM ratio (pull-down/input)) came to 0.144. The result for “GATGATTGTTCTCCCAGCTGATGAATTGGCGTGATCGAGTAAACAAATTTTCCTAATCTTTCTGTTCAAGCGCCATCTAC” reads 1.

Take “GATGATTGTTCTCCCAGCTGATGAATTGGAACTTTCGAGTAAACAAATTTTCCTAATCTTTCTGTTCAAGCGCCATCTAC”: the binding signal (RPM ratio (pull-down/input)) stood at 0.277. The result for “GATGATTGTTCTCCCAGCTGATGAATTGGCACTTTCGAGTAAACAAATTTTCCTAATCTTTCTGTTCAAGCGCCATCTAC” reads 0.459; that for “GATGATTGTTCTCCCAGCTGATGAATTATGGTGCTCGAGTAAACAAATTTTCCTAATCTTTCTGTTCAAGCGCCATCTAC”, 0.817.

Turning to “GATGATTGTTCTCCCAGCTGATGAATTCTTTCACTCGAGTAAACAAATTTTCCTAATCTTTCTGTTCAAGCGCCATCTAC”, the binding signal (RPM ratio (pull-down/input)) came out at 0.258.

In the case of “GATGATTGTTCTCCCAGCTGATGAATTGATGCAGTCGAGTAAACAAATTTTCCTAATCTTTCTGTTCAAGCGCCATCTAC”, the binding signal (RPM ratio (pull-down/input)) is 3.37. The result for “GATGATTGTTCTCCCAGCTGATGAATTAACTAAATCGAGTAAACAAATTTTCCTAATCTTTCTGTTCAAGCGCCATCTAC” reads 0.19; that for “GATGATTGTTCTCCCAGCTGATGAATTTTACATCTCGAGTAAACAAATTTTCCTAATCTTTCTGTTCAAGCGCCATCTAC”, 0.446. The result for “GATGATTGTTCTCCCAGCTGATGAATTTAGCCCGTCGAGTAAACAAATTTTCCTAATCTTTCTGTTCAAGCGCCATCTAC” reads 1.59. The result for “GATGATTGTTCTCCCAGCTGATGAATTGACACGCTCGAGTAAACAAATTTTCCTAATCTTTCTGTTCAAGCGCCATCTAC” reads 0.497; that for “GATGATTGTTCTCCCAGCTGATGAATTAGATGCATCGAGTAAACAAATTTTCCTAATCTTTCTGTTCAAGCGCCATCTAC”, 2.95; that for “GATGATTGTTCTCCCAGCTGATGAATTTCACATCTCGAGTAAACAAATTTTCCTAATCTTTCTGTTCAAGCGCCATCTAC”, 0.58. “GATGATTGTTCTCCCAGCTGATGAATTGGAGATTTCGAGTAAACAAATTTTCCTAATCTTTCTGTTCAAGCGCCATCTAC”: the binding signal (RPM ratio (pull-down/input)) amounted to 0.315. The result for “GATGATTGTTCTCCCAGCTGATGAATTGCTTCGCTCGAGTAAACAAATTTTCCTAATCTTTCTGTTCAAGCGCCATCTAC” reads 0.445; that for “GATGATTGTTCTCCCAGCTGATGAATTCCATGAATCGAGTAAACAAATTTTCCTAATCTTTCTGTTCAAGCGCCATCTAC”, 0.262. The result for “GATGATTGTTCTCCCAGCTGATGAATTGGACGGCTCGAGTAAACAAATTTTCCTAATCTTTCTGTTCAAGCGCCATCTAC” reads 0.227; that for “GATGATTGTTCTCCCAGCTGATGAATTTCAAAGGTCGAGTAAACAAATTTTCCTAATCTTTCTGTTCAAGCGCCATCTAC”, 0.186; that for “GATGATTGTTCTCCCAGCTGATGAATTGTCCTCATCGAGTAAACAAATTTTCCTAATCTTTCTGTTCAAGCGCCATCTAC”, 0.396. The result for “GATGATTGTTCTCCCAGCTGATGAATTTTTTGCATCGAGTAAACAAATTTTCCTAATCTTTCTGTTCAAGCGCCATCTAC” reads 1.37; that for “GATGATTGTTCTCCCAGCTGATGAATTGTGTGTTTCGAGTAAACAAATTTTCCTAATCTTTCTGTTCAAGCGCCATCTAC”, 4.97; that for “GATGATTGTTCTCCCAGCTGATGAATTTTCTTGGTCGAGTAAACAAATTTTCCTAATCTTTCTGTTCAAGCGCCATCTAC”, 0.357. As for “GATGATTGTTCTCCCAGCTGATGAATTGGCCAGTTCGAGTAAACAAATTTTCCTAATCTTTCTGTTCAAGCGCCATCTAC”, the binding signal (RPM ratio (pull-down/input)) worked out at 0.301.

As for “GATGATTGTTCTCCCAGCTGATGAATTAAGACCCTCGAGTAAACAAATTTTCCTAATCTTTCTGTTCAAGCGCCATCTAC”, the binding signal (RPM ratio (pull-down/input)) amounted to 0.354. The result for “GATGATTGTTCTCCCAGCTGATGAATTCTTAGCTTCGAGTAAACAAATTTTCCTAATCTTTCTGTTCAAGCGCCATCTAC” reads 0.274.

With “GATGATTGTTCTCCCAGCTGATGAATTAACTGCCTCGAGTAAACAAATTTTCCTAATCTTTCTGTTCAAGCGCCATCTAC”, the binding signal (RPM ratio (pull-down/input)) turned out to be 0.42.

Take “GATGATTGTTCTCCCAGCTGATGAATTAGTGAAATCGAGTAAACAAATTTTCCTAATCTTTCTGTTCAAGCGCCATCTAC”: the binding signal (RPM ratio (pull-down/input)) is 0.414. The result for “GATGATTGTTCTCCCAGCTGATGAATTATACTGCTCGAGTAAACAAATTTTCCTAATCTTTCTGTTCAAGCGCCATCTAC” reads 0.496; that for “GATGATTGTTCTCCCAGCTGATGAATTCCCGGGTTCGAGTAAACAAATTTTCCTAATCTTTCTGTTCAAGCGCCATCTAC”, 0.27. The result for “GATGATTGTTCTCCCAGCTGATGAATTGTAAGTGTCGAGTAAACAAATTTTCCTAATCTTTCTGTTCAAGCGCCATCTAC” reads 0.84; that for “GATGATTGTTCTCCCAGCTGATGAATTACAGGAGTCGAGTAAACAAATTTTCCTAATCTTTCTGTTCAAGCGCCATCTAC”, 0.277.

In the case of “GATGATTGTTCTCCCAGCTGATGAATTGTAGACATCGAGTAAACAAATTTTCCTAATCTTTCTGTTCAAGCGCCATCTAC”, the binding signal (RPM ratio (pull-down/input)) was 0.874. The result for “GATGATTGTTCTCCCAGCTGATGAATTGTGAGGCTCGAGTAAACAAATTTTCCTAATCTTTCTGTTCAAGCGCCATCTAC” reads 0.816; that for “GATGATTGTTCTCCCAGCTGATGAATTTGTGACCTCGAGTAAACAAATTTTCCTAATCTTTCTGTTCAAGCGCCATCTAC”, 2.34; that for “GATGATTGTTCTCCCAGCTGATGAATTAAGAAATTCGAGTAAACAAATTTTCCTAATCTTTCTGTTCAAGCGCCATCTAC”, 0.453.

As for “GATGATTGTTCTCCCAGCTGATGAATTACCCGGGTCGAGTAAACAAATTTTCCTAATCTTTCTGTTCAAGCGCCATCTAC”, the binding signal (RPM ratio (pull-down/input)) was determined as 0.174.

In the case of “GATGATTGTTCTCCCAGCTGATGAATTGAGGACATCGAGTAAACAAATTTTCCTAATCTTTCTGTTCAAGCGCCATCTAC”, the binding signal (RPM ratio (pull-down/input)) came to 0.395. For “GATGATTGTTCTCCCAGCTGATGAATTTCGACCGTCGAGTAAACAAATTTTCCTAATCTTTCTGTTCAAGCGCCATCTAC”, the binding signal (RPM ratio (pull-down/input)) came to 0.402. The result for “GATGATTGTTCTCCCAGCTGATGAATTCTCCGCATCGAGTAAACAAATTTTCCTAATCTTTCTGTTCAAGCGCCATCTAC” reads 0.8. The result for “GATGATTGTTCTCCCAGCTGATGAATTGTCGCTGTCGAGTAAACAAATTTTCCTAATCTTTCTGTTCAAGCGCCATCTAC” reads 0.566. The result for “GATGATTGTTCTCCCAGCTGATGAATTCTGTGGATCGAGTAAACAAATTTTCCTAATCTTTCTGTTCAAGCGCCATCTAC” reads 1.34; that for “GATGATTGTTCTCCCAGCTGATGAATTGACACCGTCGAGTAAACAAATTTTCCTAATCTTTCTGTTCAAGCGCCATCTAC”, 0.436. With “GATGATTGTTCTCCCAGCTGATGAATTTAGACAGTCGAGTAAACAAATTTTCCTAATCTTTCTGTTCAAGCGCCATCTAC”, the binding signal (RPM ratio (pull-down/input)) came out at 0.418. Turning to “GATGATTGTTCTCCCAGCTGATGAATTCATTTCATCGAGTAAACAAATTTTCCTAATCTTTCTGTTCAAGCGCCATCTAC”, the binding signal (RPM ratio (pull-down/input)) was 0.425.

For “GATGATTGTTCTCCCAGCTGATGAATTAGTGCAGTCGAGTAAACAAATTTTCCTAATCTTTCTGTTCAAGCGCCATCTAC”, the binding signal (RPM ratio (pull-down/input)) amounted to 0.901. The result for “GATGATTGTTCTCCCAGCTGATGAATTGCATGCTTCGAGTAAACAAATTTTCCTAATCTTTCTGTTCAAGCGCCATCTAC” reads 2.33; that for “GATGATTGTTCTCCCAGCTGATGAATTGTTTTTTTCGAGTAAACAAATTTTCCTAATCTTTCTGTTCAAGCGCCATCTAC”, 4.84.
